# PMC4336329 (PLoS ONE, 2015)
# About 14,000 (4.5%) of roughly 310,000 compounds showed an effect of 50% or more. Effects have a minus sign here. This is one part of the list.
# Target: human ether-à-go-go-related gene (hERG) potassium channel (human, UniProt Q12809)
# Assay: primary screen, population patch clamp on CHO cells stably expressing hERG
# 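Further: peak tail current of the secondary pulse compared with the same well before compound.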
# Sequence of human ether-à-go-go-related gene (hERG) potassium channel (Q12809 whole entry, looked up): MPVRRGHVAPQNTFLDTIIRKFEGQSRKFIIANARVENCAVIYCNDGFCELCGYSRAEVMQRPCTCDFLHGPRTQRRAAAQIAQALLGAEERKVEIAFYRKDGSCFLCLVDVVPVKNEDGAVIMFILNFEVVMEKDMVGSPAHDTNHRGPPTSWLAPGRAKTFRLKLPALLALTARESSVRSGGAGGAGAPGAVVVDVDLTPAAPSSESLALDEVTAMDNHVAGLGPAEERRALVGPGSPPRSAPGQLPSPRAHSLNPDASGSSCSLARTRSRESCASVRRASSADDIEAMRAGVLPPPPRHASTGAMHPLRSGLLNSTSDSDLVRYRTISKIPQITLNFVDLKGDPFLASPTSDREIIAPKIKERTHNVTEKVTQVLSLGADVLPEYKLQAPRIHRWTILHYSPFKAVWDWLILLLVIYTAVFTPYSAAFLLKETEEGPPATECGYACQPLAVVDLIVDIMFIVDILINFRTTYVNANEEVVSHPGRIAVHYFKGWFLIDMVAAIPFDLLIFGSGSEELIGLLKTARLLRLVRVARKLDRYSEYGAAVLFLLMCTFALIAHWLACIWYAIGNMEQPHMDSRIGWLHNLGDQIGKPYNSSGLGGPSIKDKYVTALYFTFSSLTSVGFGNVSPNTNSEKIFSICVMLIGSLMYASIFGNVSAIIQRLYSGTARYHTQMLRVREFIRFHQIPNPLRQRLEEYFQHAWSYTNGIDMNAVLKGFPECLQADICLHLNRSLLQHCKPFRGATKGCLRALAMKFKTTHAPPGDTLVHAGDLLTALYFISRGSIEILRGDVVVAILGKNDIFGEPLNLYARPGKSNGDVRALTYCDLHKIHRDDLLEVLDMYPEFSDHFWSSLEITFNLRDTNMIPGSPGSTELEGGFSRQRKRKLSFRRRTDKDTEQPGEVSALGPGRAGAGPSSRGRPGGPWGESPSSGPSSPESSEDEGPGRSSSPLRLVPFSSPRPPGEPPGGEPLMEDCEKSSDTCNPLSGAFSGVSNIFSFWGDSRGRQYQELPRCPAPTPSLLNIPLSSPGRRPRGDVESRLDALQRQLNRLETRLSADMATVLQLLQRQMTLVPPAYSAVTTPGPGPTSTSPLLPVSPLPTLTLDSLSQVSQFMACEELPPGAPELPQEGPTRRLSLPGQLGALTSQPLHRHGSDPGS
row,Compound,"hERG current change (%, negative = inhibition) at 10uM"
1,Cc1cc(NC(=O)COC(=O)C2CCN(S(=O)(=O)c3ccccc3)CC2)c([N+](=O)[O-])cc1C,-41.6%
2,Clc1ccccc1OCc1nnc(-c2ccccc2Br)o1,13.1%
3,COc1ccc(CCCc2nnc(SCC(=O)Nc3ccccc3F)o2)cc1,-10%
4,COc1ccc(NS(=O)(=O)c2cccc(NC(=O)NCCCl)c2)cc1,4.65%
5,COc1cccc(/C=C/C(=O)Nc2ccc(C(=O)Nc3cccc(S(N)(=O)=O)c3)cc2)c1OC,15.8%
6,O=C(COC(=O)CCC(=O)c1ccc(Cl)cc1)NCc1ccco1,8.01%
7,COc1ccc(NC(=O)Cc2coc3cc(C)c(C(C)C)cc23)cc1S(=O)(=O)N1CCOCC1,-24.6%
8,CCOC(=O)C1C(=O)NC(c2ccccc2)=NC1c1ccc(F)cc1 (centres unmarked),3.44%
9,C/C=C/C(O)c1ccc2ccccc2c1 (centres unmarked),16.5%
10,COc1ccc2oc(=O)c(/C(C)=N/NC(=O)c3ccncc3)cc2c1,-8.39%
11,Cc1ccc(OCc2nnc(NC(=O)c3ccco3)s2)cc1,6.86%
12,CC(=O)Nc1c(O)nc(SCC(=O)Nc2nnc(CC(C)C)s2)[nH]c1=O,13.9%
13,CCOC(=O)c1c(O)c2ccccc2n(C)c1=O,27.7%
14,COc1ccc(C(=O)N2C[C@H]3C[C@@H](C2)c2cccc(=O)n2C3)cc1OC,3.12%
15,COc1cc(NC(=S)N2CCN(CCO)CC2)c(OC)cc1Cl,17.3%
16,Cc1ccccc1S(=O)(=O)Oc1ccccc1C(=O)Oc1ccccc1,-1.26%
17,O=c1cc(-c2ccccc2)c2cc(Cl)c(O)c(CN3CCOCC3)c2o1,-11%
18,Cc1nn2c(NCCN(C)C)c3c(nc2c1-c1ccccc1)CCCC3,-41.4%
19,CC(OCCN1CCCC1)(c1ccc(F)cc1)c1ccc(F)cc1.Cl,-63.1%
20,Cc1cc(C)c(NC(=O)C2CCCN(S(=O)(=O)c3c(C)noc3/C=C/N(C)C)C2)c(C)c1 (centres unmarked),4.13%
21,Nc1ccc(-c2nc3ccc(N)cc3s2)cc1,10.2%
22,c1ccc2oc(-c3ccn[nH]3)cc2c1,8.06%

row,Compound,"hERG current change (%, negative = inhibition) at 10uM"
1,CCN(CC(=O)Nc1c(F)cccc1F)C(=O)c1cc(S(=O)(=O)N(C)C)ccc1N1CCCC1,-2.85%
2,Cc1ccccc1NC(=O)Cn1c(O)c(N=NC(=O)c2ccccc2O)c2ccccc21,17.5%
3,O=C(CN1C(=O)/C(=C\C=C\c2ccccc2)SC1=S)Nc1ccc(F)cc1,12.8%
4,CC12CCC(=O)N1C(C(=O)NCCc1ccc(F)cc1)CS2 (centres unmarked),9.67%
5,CCC(CC)c1nnc(NC(=O)CSCC(=O)Nc2cc(C)on2)s1,7.58%
6,CC(Oc1ccc(Br)cc1Br)C(=O)Nc1cccnc1Cl (centres unmarked),10.4%
7,O=[N+]([O-])c1cccc(CSC2=NCCN2S(=O)(=O)c2ccccc2)c1,-6.78%
8,CCCn1c2c(c(=N)c3c1CCC3)CCCC2.I,6.05%
9,Cc1ccc(-c2cc(C(F)(F)F)nn2-c2ccc(S(N)(=O)=O)cc2)cc1,2.42%
10,O=C(Nc1ccc(O)cc1C(=O)O)c1ccc2c(c1)C(=O)N(Cc1ccco1)C2=O,-16.8%
11,c1cncc(CNc2ncnc3sccc23)c1,17.8%
12,O=C(CSc1ncnc2c1oc1ccccc12)Nc1ccccc1C(F)(F)F,11.9%
13,CCc1ccc2c(c1)C1(SC(NC(C)=O)=NN1C(C)=O)C(=O)N2C(C)C (centres unmarked),6.23%
14,COc1ccc(Nc2cc(C(=O)NCCCN3CCOCC3)c3ccccc3n2)cc1OC,-5.34%
15,CCn1nc(C)c(NC(=O)c2ccc(Cl)cc2)c1C,5.72%
16,CS(=O)(=O)Nc1cccc(S(=O)(=O)N2CCN(C(=O)c3ccccc3)CC2)c1,-18.9%
17,O=C(NCc1ccco1)C1c2ccccc2Oc2ccccc21,2.24%
18,CCN1C(=O)C(CC(=O)Nc2ccc(C)cc2C)Nc2cc(S(=O)(=O)N(C)C)ccc21 (centres unmarked),-36.5%
19,O=C(CSCc1ccccc1)NCCCN1CCOCC1,8.67%
20,O=C(CNC(=O)c1ccc(Br)o1)NNC(=O)c1ccccc1F,-23.7%
21,CCOC(=O)N1CCN(CC(=O)Nc2cc3c(cc2C(C)=O)OCO3)CC1,-1.3%
22,Cc1cc2cc(OCC(=O)O)ccc2n1C,6.21%

row,Compound,"hERG current change (%, negative = inhibition) at 10uM"
1,COc1ccc2cc(S(=O)(=O)N3CCCCC3)ccc2c1S(=O)(=O)N1CCCCC1,2.92%
2,N#CCCn1cc(C=O)c(-c2cccs2)n1,1.4%
3,COC(=O)c1ccc(Cn2cc(Cl)cn2)o1,21.5%
4,Cc1ccc(C)c(NS(=O)(=O)c2cc(C(=O)Nc3cccc(N(C)S(C)(=O)=O)c3)ccc2C)c1,-21.1%
5,C=CCNCCCOc1ccc(C)cc1Br.Cl,-9.56%
6,CCOC(=O)C1CN(S(=O)(=O)c2ccccc2)CCN1S(=O)(=O)c1ccccc1 (centres unmarked),-17.2%
7,O=C(COc1ccc2c(c1)CCC2)N1CCN(c2cccc(C(F)(F)F)c2)CC1,-6.81%
8,CC(=O)NCCc1nc2cc(NC(=O)c3ccccc3C)ccc2n1C,7.35%
9,C/C=C(/C(=C/C)c1ccc(O)cc1)c1ccc(O)cc1,5.26%
10,CCOC(=O)c1c(-c2ccc(Cl)cc2)csc1NC(=O)CNCc1ccco1.O=C(O)C(=O)O,-28.9%
11,O=C(c1ccc(N2CCN(C3CC(=O)N(c4ccc(F)cc4)C3=O)CC2)cc1)c1cccnc1 (centres unmarked),-50.6%
12,CCOC(=O)c1nsnc1NCCSC(=N)N.I,3.69%
13,CCCS(=O)(=O)c1nc(S(=O)(=O)c2ccc(C)cc2)c(NCCCN(C)C)s1,-25.3%
14,Cc1ccc2nc(CSc3nc(C)cc(C)c3C#N)[nH]c2c1,-12.1%
15,CCC/C=C1/CCCOC(C(=O)NCc2cc(C)n(C)n2)(C(F)(F)F)C1 (centres unmarked),5.48%
16,COc1ccc(-c2c(C)oc3c(CN4CCOCC4)c(O)ccc3c2=O)cc1OC,-1.52%
17,O=C(CCc1nc2ccccc2c(=O)[nH]1)Nc1cccc(S(=O)(=O)N2CCCCC2)c1,10.9%
18,O=C(CN1C(=O)c2cccc([N+](=O)[O-])c2C1=O)N1CCN(c2ccc(F)cc2)CC1,7.99%
19,Cc1cc(C)cc(N(CC(=O)NCCSCc2ccco2)S(C)(=O)=O)c1,-11.7%
20,O=C(CSC1=N/C(=C/c2ccco2)C(=O)N1c1ccc(OC(F)F)cc1)NC1CCS(=O)(=O)C1 (centres unmarked),-27.5%
21,COc1ccccc1N(CC(=O)NCCc1ccccc1)C(=O)CCC(=O)Nc1cc(C)ccn1,-3.26%
22,CC(=O)c1ccc(N2CCN(C(=O)C3CCN(S(=O)(=O)c4ccc(F)cc4)CC3)CC2)cc1,-52.6%

row,Compound,"hERG current change (%, negative = inhibition) at 10uM"
1,CC/C(C)=N/Nc1nc2c(c(=O)[nH]c(=O)n2C)n1Cc1ccccc1,5.57%
2,CCOc1cc(CNc2ncnc3nc[nH]c23)ccc1OC,7.07%
3,O=C(COc1ccc(C(=O)NCc2cccnc2)cc1)Nc1cccc(C(F)(F)F)c1,-60.6%
4,Cc1ccccc1C(=O)c1c[nH]c(C(=O)NCc2cccs2)c1,17.8%
5,O=C1CC2c3ccccc3C1C1C(=O)N(CCc3ccccc3)C(=O)C21 (centres unmarked),-1.88%
6,CCOc1cc(NC(=O)CCl)c(OCC)cc1NC(C)=O,20%
7,CC(=O)c1ccc(OCc2cc(C(=O)N3CCN(c4ccccc4)CC3C)no2)cc1 (centres unmarked),1.99%
8,CCC(C)N(C(=O)COC(=O)CSc1ccc([N+](=O)[O-])cc1)C1CCS(=O)(=O)C1 (centres unmarked),-29.8%
9,CCN1C(=O)N[C@@H](CCc2ccccc2)[C@@H](C(=O)OC)[C@H]1C,-0.742%
10,Cc1ccccc1NC(=O)c1nnn(-c2ccc3c(c2)OCCO3)c1N,-1.68%
11,O=C(CCS(=O)(=O)c1ccc(F)cc1)Nc1ccc(N2CCN(Cc3ccccc3)CC2)cc1,-0.195%
12,COc1ccc(NC2=NCCC(=O)N2Cc2cccs2)cc1.Cl,10.3%
13,COc1cc(/C=N/N(c2ccccc2)c2ccccc2)ccc1O,18%
14,CC1CCCCC1NC(=O)CN1C(=O)COc2ccccc21 (centres unmarked),16.9%
15,CSC1=NCCN1C(=O)c1c(-c2c(F)cccc2Cl)noc1C,-9.91%
16,Cc1ccc(N=Cc2cccc(O)c2O)c(C)c1,-19.7%
17,CCCCN(C)CCNC(=O)c1ccc2c(c1)NC(=O)C(N1CCCCC1)S2 (centres unmarked),2.48%
18,O=C(CNC(=O)c1ccc(Br)cc1)OCc1cc([N+](=O)[O-])cc2c1OCOC2,8.26%
19,CCOCCCN(C(=O)c1snc(C(N)=O)c1N)C(C(=O)NCCC(C)C)c1ccc(Cl)cc1 (centres unmarked),-68.1%
20,C=C(C)CSc1nnc([C@@H]2CCCN2C(=O)OC(C)(C)C)o1,12.5%
